Assay results taken from PubChem BioAssay AID488969 (Vanderbilt High Throughput Screening Facility, 2010).
Whole data set: some 110,000 compounds, median “z-score” near -0.1, cut for the highest 2% near 2. The list shows a part of the results. Calls of active or inactive are those of the source.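 How the source made its calls: active means z-score in the third read window above 3 or below -3; inactive means the rest.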

The molecules below were run against Metabotropic glutamate receptor 8 (Rattus norvegicus) (UniProt P70579) (assay: mGluR8 Gi/Go-coupled signaling modulation – cell-based, rat, thallium flux, HTS, primary screen (AID 488969)). Details: HEK293 rat mGluR8, GIRK (G protein-gated inwardly rectifying potassium channel) thallium flux, FluoZin2; at 10 µM; stronger effect = higher value; submaximal glutamate (EC20) added with thallium.
Chain of UniProt P70579 (P70579 whole entry, looked up): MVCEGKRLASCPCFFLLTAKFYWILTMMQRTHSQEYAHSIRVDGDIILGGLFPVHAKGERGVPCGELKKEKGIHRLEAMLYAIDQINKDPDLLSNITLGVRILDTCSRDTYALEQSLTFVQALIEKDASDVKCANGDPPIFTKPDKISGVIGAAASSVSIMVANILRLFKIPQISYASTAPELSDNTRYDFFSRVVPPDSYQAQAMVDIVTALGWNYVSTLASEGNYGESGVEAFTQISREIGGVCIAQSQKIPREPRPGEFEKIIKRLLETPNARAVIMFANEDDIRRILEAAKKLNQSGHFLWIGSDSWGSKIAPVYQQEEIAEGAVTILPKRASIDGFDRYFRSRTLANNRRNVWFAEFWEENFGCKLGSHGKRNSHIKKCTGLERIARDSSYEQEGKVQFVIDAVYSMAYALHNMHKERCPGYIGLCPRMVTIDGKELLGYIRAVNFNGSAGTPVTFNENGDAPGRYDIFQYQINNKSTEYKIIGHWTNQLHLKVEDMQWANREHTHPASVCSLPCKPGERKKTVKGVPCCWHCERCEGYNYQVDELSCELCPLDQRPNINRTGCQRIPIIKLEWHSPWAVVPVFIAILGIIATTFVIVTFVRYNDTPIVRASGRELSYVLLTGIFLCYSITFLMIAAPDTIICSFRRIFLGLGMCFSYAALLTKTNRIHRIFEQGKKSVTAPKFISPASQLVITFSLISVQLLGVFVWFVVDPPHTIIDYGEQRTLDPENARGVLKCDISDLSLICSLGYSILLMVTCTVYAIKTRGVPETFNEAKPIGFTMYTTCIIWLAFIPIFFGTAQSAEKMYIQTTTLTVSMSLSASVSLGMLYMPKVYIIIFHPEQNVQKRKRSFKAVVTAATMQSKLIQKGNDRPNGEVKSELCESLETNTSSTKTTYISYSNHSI
Cc1ccc2[nH]c(=O)c(CN(Cc3cccs3)C(=S)NCC3CCCO3)cc2c1 (stereo unspecified) was tested, and the z-score was -0.21.
With COc1nc(-c2ccccc2)ccc1-c1noc(COc2ccccc2)n1 the z-score was 0.145.
With Cc1cc(N)n2ncc(-c3ccc(F)cc3)c2n1 the z-score was 0.097.
O=C1N(c2ccccc2)C(c2ccc(Cl)cc2)N2CCCN12 (stereo unspecified) gave a z-score of 0.277.
For O=C1CCCc2c1cc(-c1ccccc1)n2-c1ccccc1, the z-score was -0.33.
CCC(Oc1ccc2c(=O)c(-c3ccccc3OC)coc2c1)C(=O)OCc1ccccc1 (stereo unspecified) gave a z-score of 0.245.
Work on CCOC(=O)C(C)Sc1ncnc2c1nnn2-c1ccc(F)cc1 (stereo unspecified) yielded a z-score of -0.257.
In the case of COCc1cc(=O)n2[nH]c(-c3ccc(C)cc3)cc2n1, the z-score is reported as -0.344.
In the case of N#Cc1c(NC(=O)c2cccnc2)sc2c1CCC2, the z-score is reported as 0.204.
O=S(=O)(NCC1CCCO1)c1ccc(S(=O)(=O)N(Cc2ccc(F)cc2)Cc2ccccn2)cc1 (stereo unspecified) was tested, and the z-score was -0.33.
For Cc1nnc(SCC(=O)NCc2ccccc2)[nH]c1=O, the z-score was 0.0528.
CCCCC(=O)Nc1cccc(NC(=S)NC(C)=O)c1 gave a z-score of -0.248.
Molecule COc1cccc(NC(=O)CNC(=O)c2cccs2)c1 has a z-score of 0.171.
Molecule CCc1nnc(NC(=O)CSc2nc(-c3ccccc3)cc(-c3ccc(OC)cc3)c2C#N)s1 has a z-score of -0.249.
Molecule CN1CCc2c(sc3c2c(=O)n(-c2ccccc2)c2n[nH]c(=S)n32)C1 has a z-score of -0.215.
In the case of CCOC(=O)C1=C(C)NC(=S)N(C(C)=O)C1c1ccccc1 (stereo unspecified), the z-score is reported as -2.05.
Work on Cc1cc(=O)oc2cc(OCc3ccc(S(=O)(=O)N4CCOCC4)cc3)ccc12 yielded a z-score of -0.364.
In the case of O=C1N(Cc2ccc3c(c2)OCO3)c2ccccc2C1(O)c1c[nH]c2ccccc12 (stereo unspecified), the z-score is reported as -0.749.
With COc1ccccc1N1CC(C(=O)Nc2cccc(C(=O)O)c2)CC1=O (stereo unspecified) the z-score was 0.601.
COCCOC(=O)C1=C(N)OC2=C(C(=O)CC(C)(C)C2)C1c1cccnc1 (stereo unspecified) showed a z-score of 0.411.
COc1ccc(F)cc1S(=O)(=O)N1CCCC(C)C1 (stereo unspecified) gave a z-score of -0.129.
O=C(O)c1cn(-c2ccccc2)nc1-c1ccc(Cl)cc1 showed a z-score of -0.381.
CCN1C(=O)/C(=C/c2cccs2)SC1=Nc1ccc(OC)cc1 was tested, and the z-score was 0.484.
O=C(COc1cccc(OC(F)F)c1)Nc1ccc(SC(F)F)cc1 was tested, and the z-score was -1.22.
O=C1C(=O)N(CCO)C(c2cccc(F)c2)/C1=C(\O)c1ccc(Cl)cc1 (stereo unspecified) showed a z-score of -0.349.
CCCCn1c(-c2cccs2)nc2nc3ccccc3nc21 was tested, and the z-score was -1.11.
Work on CCOc1ccccc1NC(=O)NS(=O)(=O)c1ccc(C)cc1 yielded a z-score of -0.284.
Molecule O=C(c1ccccn1)N1N=C2/C(=C/c3ccccc3)CCCC2C1c1ccccc1 (stereo unspecified) has a z-score of 0.405.
Cc1cccc(NC2=CC(=O)OC(C)C2)c1 (stereo unspecified) gave a z-score of -0.135.
For O=C(CCN1C(=O)c2ccccc2C1=O)Nc1ccccn1, the z-score was -0.805.
In the case of COc1ccccc1C(=O)Nc1ccc(NC(=O)c2ccco2)c(C)c1, the z-score is reported as 0.676.
Cc1nc(NC(=O)/C=C/c2ccccc2)n[nH]1 gave a z-score of -0.402.
In the case of CCOC(=O)c1sc(NC(=O)CSc2ncn[nH]2)c(C#N)c1C, the z-score is reported as -0.538.
O=C(CN1CCCCC1)Nc1ccc(S(=O)(=O)N2CCCCCC2)cc1 showed a z-score of 0.595.
Work on COc1cc(OC)c(OC)cc1/C=N/Nc1ncnc2c1[nH]c1ccccc12 yielded a z-score of -0.16.
With Cc1ccc(-n2c(SCC(N)=O)nnc2-c2cccnc2)c(C)c1 the z-score was -1.28.
CCOCCCNC(=O)C(NC(=O)CNC(C)=O)c1ccc(C)cc1 (stereo unspecified) gave a z-score of 0.0565.
In the case of O=C(CSc1nncc2ccccc12)N1CCOCC1, the z-score is reported as 0.132.
CN(C)c1ccc(-c2noc(-c3ccccc3O)n2)cc1 gave a z-score of -0.541.
O=C1C2C3C=CC(C3)C2C(=O)N1c1ccccc1OS(=O)(=O)c1ccccc1 (stereo unspecified) showed a z-score of -0.0815.
Work on Cc1cccc(C)c1NC(=O)CN(C)CC(=O)Nc1ccccc1Br yielded a z-score of 0.0169.
Molecule COC(=O)C1=C(C)N(Cc2ccc(C)cc2)C(=O)/C1=C\c1cc(OC)c(OC)c(OC)c1 has a z-score of -0.349.
O=C(Nn1c(-c2ccccc2)nc2ccccc2c1=O)c1ccco1 showed a z-score of 0.0377.
In the case of C=CCn1c(SCC(C)=O)nnc1-c1cc(-c2ccccc2)sc1N, the z-score is reported as -0.526.
CC1CCN(c2ccc(C(=O)NCc3ccco3)cc2[N+](=O)[O-])CC1 was tested, and the z-score was -0.684.
With CCNS(=O)(=O)c1cc(OC)c(Cl)cc1OC the z-score was -0.117.
O=C(Nc1nnc(COc2ccccc2)s1)c1ccco1 showed a z-score of -0.0146.
With NC(N)=N/N=C/c1ccc(OCc2ccccc2)cc1 the z-score was 0.177.
For COc1ccc(C(=O)OCCNC(=O)c2ccncc2)cc1OC, the z-score was 0.575.
In the case of CCc1ccc2c(c1)C(c1cccs1)=NNC(c1cccnc1)=N2, the z-score is reported as -1.48.
For CC1=C(C)CC(C(=O)c2ccccc2)C(C(=O)O)C1 (stereo unspecified), the z-score was -0.142.
In the case of CC1=C([N+](=O)[O-])C(c2cccc(Br)c2)C2=C(N1)c1ccccc1C2=O (stereo unspecified), the z-score is reported as -0.467.
CNC(=O)NC(=O)C(C)OC(=O)CCCSc1nc2ccccc2s1 (stereo unspecified) was tested, and the z-score was -0.105.
In the case of CCOc1ccc(CC(=O)Nc2sc(Cc3ccccc3)cc2C(N)=O)cc1OCC, the z-score is reported as -0.35.
For CCCSC1=C(C#N)C(c2ccc(O)c(OC)c2)CC(=O)N1 (stereo unspecified), the z-score was -0.133.
CCOc1cc(CN2CCN(c3cccc(C(F)(F)F)c3)CC2)ccc1OC gave a z-score of 0.642.
In the case of CC(C)(C)C1CCc2c(C(=O)N/N=C/c3cccs3)csc2C1 (stereo unspecified), the z-score is reported as active: 3.34.
Work on Cc1ccc(-c2cc(C(=O)Nc3ccc(S(=O)(=O)Nc4nccs4)cc3)c3ccccc3n2)c(C)c1 yielded a z-score of 0.00245.
With CC(=O)OC(C(=O)N1CCN(c2ccc(F)cc2)CC1)c1ccccc1 (stereo unspecified) the z-score was -0.163.
COC(=O)C1=C(C)NC2=C(C(=O)CC(C)(C)C2)C1c1ccccn1 (stereo unspecified) gave a z-score of 0.0959.
NC(=O)c1cccnc1Sc1ccc(Cl)cc1 gave a z-score of -0.431.
Cc1ccnc(NS(=O)(=O)c2cnc(Cl)c(Br)c2)c1 was tested, and the z-score was -0.0122.
With COc1cccc(OC)c1OCCCc1c(C)n[nH]c1C the z-score was 0.0759.
In the case of COc1ccccc1CNC(=O)C1CCC1, the z-score is reported as -0.172.
Work on Cc1c(NC(=S)NCc2ccc(F)cc2)cccc1[N+](=O)[O-] yielded a z-score of -0.287.
Work on COc1ccc(C(=O)N2CCc3cc(OC)c(OC)cc3C2c2cccc([N+](=O)[O-])c2)cc1 (stereo unspecified) yielded a z-score of -0.702.
Work on Cn1cccc1Cc1nnc(SCC(=O)Nc2ccc(F)cc2)n1-c1ccc(F)cc1 yielded a z-score of -0.84.
Work on Oc1ccc(CN2CCN(c3ccccc3)CC2)c2cccnc12 yielded a z-score of 0.529.
O=C(CSc1nnc(-c2ccco2)n1Cc1ccccc1)NC(=O)NCc1ccco1 gave a z-score of 0.635.
CC(C)(C)C(C(Oc1ccc(Cl)cc1)n1cncn1)n1nnnc1C(c1cccc(Cl)c1)N1CCCCC1 (stereo unspecified) gave a z-score of 0.12.
Work on COC(=O)c1ccc(NC(=O)CSc2nnc(-c3ccncc3)n2C)cc1 yielded a z-score of 0.0349.
Cc1nc(Cl)c(C(=O)NC(=O)Nc2cccc(C(F)(F)F)c2)c(C)c1[N+](=O)[O-] was tested, and the z-score was -0.0667.
With Cc1cc(S(=O)(=O)N2CCCC2C(=O)N2CCOCC2)c(C)cc1Cl (stereo unspecified) the z-score was -0.177.
Cn1c(=O)c(C(=O)CN2CCc3ccccc32)c(N)n(Cc2ccccc2)c1=O gave a z-score of -0.175.
With O=P(c1ccccc1)(c1ccccc1)C(O)c1ccncc1 (stereo unspecified) the z-score was -0.175.
CCOc1ccc(C=O)cc1CN1CCCCC1 gave a z-score of 0.00477.
With CCCc1nn2c(=O)cc(O)nc2s1 the z-score was -0.103.
For CCc1c(-c2ccccc2)nc2nc(C)c(C)nn12, the z-score was -1.31.
Work on O=C(/C=C/c1ccco1)NC1=NCCS1 yielded a z-score of -0.065.
Molecule COc1ccc(CC(=O)Nc2ccc(C(=O)Nc3ccccc3C(=O)O)cc2)cc1OC has a z-score of -0.364.
In the case of Cc1ccc(C(=O)COC(=O)CCc2ccc(S(=O)(=O)N3CCCCC3)cc2)cc1, the z-score is reported as -0.561.
Molecule CCOC(=O)N1CCC(N2CCN(S(=O)(=O)c3ccc(Cl)cc3)CC2)CC1 has a z-score of -0.145.
Work on CC(C)(C)c1ccc(O)c(/C=N\O)c1 yielded a z-score of -0.323.
Work on CN(C(=O)c1ccc(S(=O)(=O)c2cccc(Cl)c2)c([N+](=O)[O-])c1)C1CCCCC1 yielded a z-score of -0.539.
Cc1ccc2cccc(OCCOCCOc3ccccc3Br)c2n1 was tested, and the z-score was -0.0438.
Work on CCN1CCN(C(=O)CCc2ccc(S(=O)(=O)NCCc3ccccc3)cc2)CC1 yielded a z-score of 0.31.
For CC(=O)Nc1ccc(-c2cn3cc(C)ccc3n2)cc1, the z-score was 0.872.
O=C(O)Cc1ccc2sc(-c3ccccc3)nc2c1 gave a z-score of -0.00637.
With Cc1cccc(Nc2nc(NCc3ccco3)c3ccccc3n2)c1 the z-score was 0.729.
COCCNC(=O)c1cn(C)c2ccc(S(=O)(=O)N(C)C3CCCCC3)cc2c1=O was tested, and the z-score was -0.0633.
Molecule CCN(C(=O)CN1C=NS(=O)(=O)c2ccccc21)c1ccccc1 has a z-score of -0.347.
With COc1ccccc1NC(=O)NCCCl the z-score was -0.0596.
Work on Cc1csc(NC(=O)c2cccc(S(=O)(=O)N3CCCCC3)c2)n1 yielded a z-score of -0.0228.
In the case of CCOC(=O)CSc1nnc(CNc2cccc(Cl)c2)n1-c1ccccc1, the z-score is reported as 2.85.
In the case of COC(=O)Cc1ccc(NC(=O)c2ccc(C)c(C)c2)cc1, the z-score is reported as -0.304.
CC(C)[C@H](NS(=O)(=O)c1ccc2c(c1)OCCO2)C(=O)OCC(=O)Nc1cccc(Cl)c1Cl showed a z-score of -0.325.
Molecule CCOC(=O)C1=C(O)C(Nc2nc3ccccc3s2)(C(F)(F)F)N=C1C (stereo unspecified) has a z-score of 0.0247.
With Cc1c(N2C(=O)/C(=C/c3cccc4ccccc34)SC2=S)c(=O)n(-c2ccccc2)n1C the z-score was -0.207.
Work on Cc1nc(-c2ccccc2)sc1-c1nc(-c2ccncc2)ncc1S(=O)(=O)c1ccccc1 yielded a z-score of 0.185.
CC(/C=C/c1ccccc1)=N/NC(=O)c1cnccn1 was tested, and the z-score was 0.287.
With O=C(CSc1ccccn1)Nc1nncs1 the z-score was -0.329.
In the case of Nc1ccccc1C(=O)N=Nc1[nH]c(N)c2ccccc12, the z-score is reported as -0.221.
For Cc1ccc(C(=O)Nc2sc(C(=O)N(C)C)c(C)c2C#N)cc1, the z-score was 0.0599.
Work on CCC(C)c1ccc(S(=O)(=O)N2CCN(C(=O)COc3ccc4c(C)cc(=O)oc4c3)CC2)cc1 (stereo unspecified) yielded a z-score of 0.0307.
Work on N#Cc1ccccc1NC(=O)c1cccc(COc2ccc(Cl)cc2Cl)c1 yielded a z-score of -0.0216.
Cc1cc(F)c(F)c(C(=O)N2CCN(C)CC2)c1Cl showed a z-score of 0.248.
Molecule COc1ccccc1N1CCN(c2nc3ccccc3nc2C(C#N)C(=O)OC(C)C)CC1 (stereo unspecified) has a z-score of -0.54.
In the case of NC12CC3CC(C1)CC(O)(C3)C2, the z-score is reported as -0.0104.
For Cc1cc(C)c2c3c(sc2n1)C(c1ccccc1)C(C#N)=C(N)O3 (stereo unspecified), the z-score was -0.213.
COc1ccc(Cc2nc(-c3ccc(Cl)cc3)no2)cc1 showed a z-score of -0.0987.
Cc1ccccc1CS(=O)(=O)Cc1ccc(C(=O)N2CCOCC2)o1 gave a z-score of 0.149.
